# Data taken from the supplement of paper PMC8728848.
# The list shows a part of the results.
# B1: NPA (Narcissus pseudonarcissus), C0HM45 (protein)
# chain: DNILYSGETLSPGEFLNNGRYVFIMQEDCNLVLYDVDKPIWATNTGGLDRRCHLSMQSDGNLVVYSPRNNPIWASNTGGENGNYVCVLQKDRNVVIYGTARWATGTNIH
# Assays:
# Experiment in all cases: glycan array binding signal (z-score within array); higher = stronger binding
# Details in all cases: glycan notation: IUPAC condensed, linker removed
# [1] = target: Neu5Ac(a2-3)Gal(b1-4)[Fuc(a1-3)]GlcNAc
# Outline: (§1)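 Columns mapping to the same glycan were averaged after glycan names were converted to IUPAC-condensed notation. The data come from 3228 arrays in the Consortium for Functional Glycomics database, limited to those with an available protein sequence. Binding is reported as a within-array Z-score averaged across arrays of one protein sequence and across linkers.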
# [2] = target: Neu5Ac(a2-3)Gal(b1-4)[Fuc(a1-3)]GlcNAc(b1-2)Man
# Outline: as §1
# [3] = target: Neu5Ac(a2-3)Gal(b1-4)[Fuc(a1-3)]GlcNAc(b1-3)Gal
# Outline: as §1
# [4] = target: Neu5Ac(a2-3)Gal(b1-4)[Fuc(a1-3)]GlcNAc(b1-3)Gal(b1-4)GlcNAc
# Outline: as §1
# [5] = target: Neu5Ac(a2-3)Gal(b1-4)[Fuc(a1-3)]GlcNAc(b1-3)Gal(b1-4)[Fuc(a1-3)]GlcNAc(b1-3)Gal(b1-4)[Fuc(a1-3)]GlcNAc
# Outline: as §1
# [6] = target: Neu5Ac(a2-3)Gal(b1-4)[Fuc(a1-3)]GlcNAc(b1-3)GalNAc
# Outline: as §1
# [7] = target: Neu5Ac(a2-3)Gal(b1-4)[Fuc(a1-3)]GlcNAc(b1-6)[Gal(b1-3)]GalNAc
# Outline: as §1
# [8] = target: Neu5Ac(a2-3)Gal(b1-4)[Fuc(a1-3)]GlcNAc(b1-6)[Neu5Ac(a2-3)Gal(b1-3)]GalNAc
# Outline: as §1
# [9] = target: Neu5Ac(a2-3)Gal(b1-4)[Fuc(a1-3)]GlcNAc6S
# Outline: as §1
# [10] = target: Neu5Ac(a2-3)Gal6S(b1-4)GlcNAc
# Outline: as §1
# [11] = target: Neu5Ac(a2-3)Gal6S(b1-4)[Fuc(a1-3)]GlcNAc
# Outline: as §1
# Neu5Ac(a2-3)GalNAc = target: Neu5Ac(a2-3)GalNAc
# Outline: as §1
# [12] = target: Neu5Ac(a2-3)GalNAc(b1-4)GlcNAc
# Outline: as §1
# [13] = target: Neu5Ac(a2-3)[GalNAc(b1-4)]Gal(b1-4)Glc
# Outline: as §1
# [14] = target: Neu5Ac(a2-3)[GalNAc(b1-4)]Gal(b1-4)GlcNAc
# Outline: as §1
# [15] = target: Neu5Ac(a2-3)[GalNAc(b1-4)]Gal(b1-4)GlcNAc(b1-3)GalNAc
# Outline: as §1
# [16] = target: Neu5Ac(a2-3)[Neu5Ac(a2-6)]GalNAc
# Outline: as §1
# Neu5Ac(a2-6)Gal = target: Neu5Ac(a2-6)Gal
# Outline: as §1
# [17] = target: Neu5Ac(a2-6)Gal(b1-3)GlcNAc(b1-3)[Gal(b1-4)GlcNAc(b1-6)]Gal(b1-4)Glc
# Outline: as §1
# Neu5Ac(a2-6)Gal(b1-4)Glc = target: Neu5Ac(a2-6)Gal(b1-4)Glc
# Outline: as §1
# [18] = target: Neu5Ac(a2-6)Gal(b1-4)GlcNAc
# Outline: as §1
# [19] = target: Neu5Ac(a2-6)Gal(b1-4)GlcNAc(b1-2)Man
# Outline: as §1
# [20] = target: Neu5Ac(a2-6)Gal(b1-4)GlcNAc(b1-2)Man(a1-3)Man(b1-4)GlcNAc(b1-4)GlcNAc
# Outline: as §1
# [21] = target: Neu5Ac(a2-6)Gal(b1-4)GlcNAc(b1-2)Man(a1-3)[Gal(b1-4)GlcNAc(b1-2)Man(a1-6)]Man(b1-4)GlcNAc(b1-4)GlcNAc
# Outline: as §1
# [22] = target: Neu5Ac(a2-6)Gal(b1-4)GlcNAc(b1-2)Man(a1-3)[GlcNAc(b1-2)Man(a1-6)]Man(b1-4)GlcNAc(b1-4)GlcNAc
# Outline: as §1
# [23] = target: Neu5Ac(a2-6)Gal(b1-4)GlcNAc(b1-2)Man(a1-3)[GlcNAc(b1-4)][Neu5Ac(a2-6)Gal(b1-4)GlcNAc(b1-2)Man(a1-6)]Man(b1-4)GlcNAc(b1-4)GlcNAc
# Outline: as §1
# [24] = target: Neu5Ac(a2-6)Gal(b1-4)GlcNAc(b1-2)Man(a1-3)[Man(a1-6)]Man(b1-4)GlcNAc(b1-4)GlcNAc
# Outline: as §1
# [25] = target: Neu5Ac(a2-6)Gal(b1-4)GlcNAc(b1-2)Man(a1-3)[Neu5Ac(a2-3)Gal(b1-4)GlcNAc(b1-2)Man(a1-6)]Man(b1-4)GlcNAc(b1-4)GlcNAc
# Outline: as §1
# [26] = target: Neu5Ac(a2-6)Gal(b1-4)GlcNAc(b1-2)Man(a1-3)[Neu5Ac(a2-6)Gal(b1-4)GlcNAc(b1-2)Man(a1-6)]Man(b1-4)GlcNAc(b1-4)GlcNAc
# Outline: as §1
# [27] = target: Neu5Ac(a2-6)Gal(b1-4)GlcNAc(b1-2)Man(a1-3)[Neu5Ac(a2-6)Gal(b1-4)GlcNAc(b1-2)Man(a1-6)]Man(b1-4)GlcNAc(b1-4)[Fuc(a1-6)]GlcNAc
# Outline: as §1
# [28] = target: Neu5Ac(a2-6)Gal(b1-4)GlcNAc(b1-2)Man(a1-6)Man(b1-4)GlcNAc(b1-4)GlcNAc
# Outline: as §1
# [29] = target: Neu5Ac(a2-6)Gal(b1-4)GlcNAc(b1-2)Man(a1-6)[Gal(b1-4)GlcNAc(b1-2)Man(a1-3)]Man(b1-4)GlcNAc(b1-4)GlcNAc
# Outline: as §1
# [30] = target: Neu5Ac(a2-6)Gal(b1-4)GlcNAc(b1-2)Man(a1-6)[GlcNAc(b1-2)Man(a1-3)]Man(b1-4)GlcNAc(b1-4)GlcNAc
# Outline: as §1
# [31] = target: Neu5Ac(a2-6)Gal(b1-4)GlcNAc(b1-2)Man(a1-6)[Man(a1-3)]Man(b1-4)GlcNAc(b1-4)GlcNAc
# Outline: as §1
# [32] = target: Neu5Ac(a2-6)Gal(b1-4)GlcNAc(b1-2)[Neu5Ac(a2-6)Gal(b1-4)GlcNAc(b1-4)]Man(a1-3)[GlcNAc(b1-4)][Neu5Ac(a2-6)Gal(b1-4)GlcNAc(b1-2)[Neu5Ac(a2-6)Gal(b1-4)GlcNAc(b1-6)]Man(a1-6)]Man(b1-4)GlcNAc(b1-4)GlcNAc
# Outline: as §1
# [33] = target: Neu5Ac(a2-6)Gal(b1-4)GlcNAc(b1-2)[Neu5Ac(a2-6)Gal(b1-4)GlcNAc(b1-4)]Man(a1-3)[GlcNAc(b1-4)][Neu5Ac(a2-6)Gal(b1-4)GlcNAc(b1-4)Man(a1-6)]Man(b1-4)GlcNAc(b1-4)GlcNAc
# Outline: as §1
# [34] = target: Neu5Ac(a2-6)Gal(b1-4)GlcNAc(b1-2)[Neu5Ac(a2-6)Gal(b1-4)GlcNAc(b1-6)]Man(a1-6)[Neu5Ac(a2-6)Gal(b1-4)GlcNAc(b1-2)Man(a1-3)][GlcNAc(b1-4)]Man(b1-4)GlcNAc(b1-4)GlcNAc
# Outline: as §1
# [35] = target: Neu5Ac(a2-6)Gal(b1-4)GlcNAc(b1-3)Gal(b1-3)GlcNAc
# Outline: as §1
# [36] = target: Neu5Ac(a2-6)Gal(b1-4)GlcNAc(b1-3)Gal(b1-4)GlcNAc
# Outline: as §1
# [37] = target: Neu5Ac(a2-6)Gal(b1-4)GlcNAc(b1-3)Gal(b1-4)GlcNAc(b1-2)Man(a1-3)[Neu5Ac(a2-6)Gal(b1-4)GlcNAc(b1-3)Gal(b1-4)GlcNAc(b1-2)Man(a1-6)]GalNAc
# Outline: as §1
# [38] = target: Neu5Ac(a2-6)Gal(b1-4)GlcNAc(b1-3)Gal(b1-4)GlcNAc(b1-3)Gal(b1-4)GlcNAc
# Outline: as §1
# [39] = target: Neu5Ac(a2-6)Gal(b1-4)GlcNAc(b1-3)Gal(b1-4)GlcNAc(b1-3)Gal(b1-4)GlcNAc(b1-2)Man(a1-3)[Neu5Ac(a2-6)Gal(b1-4)GlcNAc(b1-3)Gal(b1-4)GlcNAc(b1-3)Gal(b1-4)GlcNAc(b1-2)Man(a1-6)]GalNAc
# Outline: as §1
# [40] = target: Neu5Ac(a2-6)Gal(b1-4)GlcNAc(b1-3)Gal(b1-4)GlcNAc(b1-3)GalNAc
# Outline: as §1
# [41] = target: Neu5Ac(a2-6)Gal(b1-4)GlcNAc(b1-3)Gal(b1-4)GlcNAc(b1-3)[Neu5Ac(a2-6)Gal(b1-4)GlcNAc(b1-3)Gal(b1-4)GlcNAc(b1-6)]GalNAc
# Outline: as §1
# [42] = target: Neu5Ac(a2-6)Gal(b1-4)GlcNAc(b1-3)Gal(b1-4)GlcNAc(b1-6)[Gal(b1-3)]GalNAc
# Outline: as §1
binder,measurement,setting,value
B1,glycan array binding signal (z-score),[1],-0.154
same,glycan array binding signal (z-score),[2],-0.152
same,glycan array binding signal (z-score),[3],-0.162
same,glycan array binding signal (z-score),[4],-0.15
same,glycan array binding signal (z-score),[5],-0.143
same,glycan array binding signal (z-score),[6],-0.089
same,glycan array binding signal (z-score),[7],-0.118
same,glycan array binding signal (z-score),[8],-0.105
same,glycan array binding signal (z-score),[9],-0.161
same,glycan array binding signal (z-score),[10],-0.166
same,glycan array binding signal (z-score),[11],-0.158
same,glycan array binding signal (z-score),Neu5Ac(a2-3)GalNAc,-0.143
same,glycan array binding signal (z-score),[12],-0.158
same,glycan array binding signal (z-score),[13],-0.159
same,glycan array binding signal (z-score),[14],-0.154
same,glycan array binding signal (z-score),[15],-0.081
same,glycan array binding signal (z-score),[16],-0.159
same,glycan array binding signal (z-score),Neu5Ac(a2-6)Gal,-0.159
same,glycan array binding signal (z-score),[17],-0.144
same,glycan array binding signal (z-score),Neu5Ac(a2-6)Gal(b1-4)Glc,-0.145
same,glycan array binding signal (z-score),[18],-0.15
same,glycan array binding signal (z-score),[19],-0.149
same,glycan array binding signal (z-score),[20],-0.137
same,glycan array binding signal (z-score),[21],-0.147
same,glycan array binding signal (z-score),[22],-0.151
same,glycan array binding signal (z-score),[23],-0.156
same,glycan array binding signal (z-score),[24],0.006
same,glycan array binding signal (z-score),[25],-0.142
same,glycan array binding signal (z-score),[26],-0.161
same,glycan array binding signal (z-score),[27],-0.137
same,glycan array binding signal (z-score),[28],-0.148
same,glycan array binding signal (z-score),[29],0.038
same,glycan array binding signal (z-score),[30],-0.1
same,glycan array binding signal (z-score),[31],3.41
same,glycan array binding signal (z-score),[32],-0.144
same,glycan array binding signal (z-score),[33],-0.152
same,glycan array binding signal (z-score),[34],-0.157
same,glycan array binding signal (z-score),[35],-0.15
same,glycan array binding signal (z-score),[36],-0.16
same,glycan array binding signal (z-score),[37],-0.117
same,glycan array binding signal (z-score),[38],-0.141
same,glycan array binding signal (z-score),[39],0.054
same,glycan array binding signal (z-score),[40],-0.143
same,glycan array binding signal (z-score),[41],0.01
same,glycan array binding signal (z-score),[42],-0.124
